Reference: the supplement of paper PMC12217912
The other results are listed elsewhere or left out. Sequences were assembled here from the parent chain. Inactive controls read about 0.05.

B1: TEV protease; numbered along this chain (parent)
chain: MGESLFKGPRDYNPISSSICHLTNESDGHTTSLYGIGFGPFIITNKHLFRRNNGTLVVQSLHGVFKVKDTTTLQQHLVDGRDMIIIRMPKDFPPFPQKLKFREPQREERICLVTTNFQTKSMSSMVSDTSCTFPSGDGIFWKHWIQTKDGQCGSPLVSTRDGFIVGIHSASNFTNTNNYFTSVPKNFMELLTNQEAQQWVSGWRLNADSVLWGGHKVFMVKPEEPFQPVKEATQL

Variants of: B1
Assay: raw area under fraction-flipped curve 0-4 h after induction (AUC4h, not background-subtracted), DNA-recorder readout of cleavage of the substrate (dimensionless); higher = more cleavage of the substrate by the protease variant
Details: temperature: 34 °C; time window: 0-4 h after rhamnose induction
Description: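 In vivo DNA recorder in E. coli TOP10(DE3) ΔrhaA at 34 °C. Each TEVp single-site mutant (parent TEVp 0) is paired with a single-site variant of the 7-mer TEVs (canonical ENLYFQ|S). The substrate sits between flexible linkers in a Bxb1-sfGFP-TEVs-SsrA fusion, so cleavage stabilises Bxb1 and speeds flipping of a recombination array, read by NGS. The value is the raw area under the fraction-flipped curve over 0-4 h after rhamnose induction (AUC4h), with ≥20 reads per time point. It is not background-subtracted; inactive controls average about 0.047.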
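Also: Bxb1 expression induced with 0.2% (w/v) L-rhamnose at OD600 near 0.5, cultures sampled hourly, flipped fraction per protease–substrate barcode pair counted by paired-end Illumina sequencing.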

Variant | area with substrate CNLYFQS | area with substrate DNLYFQS | area with substrate FNLYFQS | area with substrate GNLYFQS | area with substrate HNLYFQS | area with substrate INLYFQS | area with substrate LNLYFQS | area with substrate MNLYFQS | area with substrate PNLYFQS | area with substrate QNLYFQS | area with substrate VNLYFQS | area with substrate WNLYFQS | area with substrate YNLYFQS | area with substrate SNLYFQS | area with substrate TNLYFQS | area with substrate KNLYFQS | area with substrate NNLYFQS | area with substrate RNLYFQS
MGESLFKGPRDYNPISSSICHLTNESDGHTTSLYGIGFGPFIITNKHLFRRNNGTLVVQSLHGVFKVKDTTTLQQHLVDGFDMIIIRMPKDFPPFPQKLKFREPQREERICLVTTNFQTKSMSSMVSDTSCTFPSGDGIFWKHWIQTKDGQCGSPLVSTRDGFIVGIHSASNFTNTNNYFTSVPKNFMELLTNQEAQQWVSGWRLNADSVLWGGHKVFMVKPEEPFQPVKEATQL [R81F] | 0.0609 | 0.0619 | 0.0714 | 0.0641 | 0.0591 | 0.0541 | 0.0622 | 0.0545 | 0.0567 | 0.0408 | 0.0593 | 0.0578 | 0.0553 |  |  |  |  | 
MGESLFKGPRDYNPISSSICHLTNESDGHTTSLYGIGFGPFIITNKHLFRRNNGTLVVQSLHGVFKVKDTTTLQQHLVDGKDMIIIRMPKDFPPFPQKLKFREPQREERICLVTTNFQTKSMSSMVSDTSCTFPSGDGIFWKHWIQTKDGQCGSPLVSTRDGFIVGIHSASNFTNTNNYFTSVPKNFMELLTNQEAQQWVSGWRLNADSVLWGGHKVFMVKPEEPFQPVKEATQL [R81K] | 0.063 | 0.0687 | 0.0584 |  | 0.0536 |  | 0.0671 |  | 0.0611 |  |  |  | 0.0632 | 0.0664 | 0.0675 |  |  | 
MGESLFKGPRDYNPISSSICHLTNESDGHTTSLYGIGFGPFIITNKHLFRRNNGTLVVQSLHGVFKVKDTTTLQQHLVDGMDMIIIRMPKDFPPFPQKLKFREPQREERICLVTTNFQTKSMSSMVSDTSCTFPSGDGIFWKHWIQTKDGQCGSPLVSTRDGFIVGIHSASNFTNTNNYFTSVPKNFMELLTNQEAQQWVSGWRLNADSVLWGGHKVFMVKPEEPFQPVKEATQL [R81M] | 0.0716 | 0.087 |  | 0.0635 | 0.0561 |  | 0.0661 | 0.066 | 0.0787 |  |  | 0.0544 | 0.0601 |  | 0.0583 | 0.0601 | 0.063 | 
MGESLFKGPRDYNPISSSICHLTNESDGHTTSLYGIGFGPFIITNKHLFRRNNGTLVVQSLHGVFKVKDTTTLQQHLVAGRDMIIIRMPKDFPPFPQKLKFREPQREERICLVTTNFQTKSMSSMVSDTSCTFPSGDGIFWKHWIQTKDGQCGSPLVSTRDGFIVGIHSASNFTNTNNYFTSVPKNFMELLTNQEAQQWVSGWRLNADSVLWGGHKVFMVKPEEPFQPVKEATQL [D79A] | 0.0772 | 0.0727 |  |  |  | 0.0702 | 0.0754 |  | 0.0756 |  | 0.0636 | 0.082 | 0.0573 | 0.0749 | 0.082 |  |  | 
MGESLFKGPRDYNPISSSICHLTNESDGHTTSLYGIGFGPFIITNKHLFRRNNGTLVVQSLHGVFKVKDTTTLQQHLVHGRDMIIIRMPKDFPPFPQKLKFREPQREERICLVTTNFQTKSMSSMVSDTSCTFPSGDGIFWKHWIQTKDGQCGSPLVSTRDGFIVGIHSASNFTNTNNYFTSVPKNFMELLTNQEAQQWVSGWRLNADSVLWGGHKVFMVKPEEPFQPVKEATQL [D79H] | 0.0669 | 0.0715 |  |  | 0.062 | 0.0604 |  |  |  |  |  | 0.0514 | 0.075 | 0.0596 | 0.0918 | 0.0814 | 0.0554 | 
MGESLFKGPRDYNPISSSICHLTNESDGHTTSLYGIGFGPFIITNKHLFRRNNGTLVVQSLHGVFKVKDTTTLQQHLVDGRDGIIIRMPKDFPPFPQKLKFREPQREERICLVTTNFQTKSMSSMVSDTSCTFPSGDGIFWKHWIQTKDGQCGSPLVSTRDGFIVGIHSASNFTNTNNYFTSVPKNFMELLTNQEAQQWVSGWRLNADSVLWGGHKVFMVKPEEPFQPVKEATQL [M83G] | 0.0439 | 0.0471 | 0.0465 |  | 0.0479 |  | 0.0439 | 0.0499 | 0.0571 |  | 0.0366 | 0.0525 | 0.0407 | 0.0481 | 0.0234 | 0.045 | 0.0529 | 0.0389
MGESLFKGPRDYNPISSSICHLTNESDGHTTSLYGIGFGPFIITNKHLFRRNNGTLVVQSLHGVFKVKDTTTLQQHLVDGRDCIIIRMPKDFPPFPQKLKFREPQREERICLVTTNFQTKSMSSMVSDTSCTFPSGDGIFWKHWIQTKDGQCGSPLVSTRDGFIVGIHSASNFTNTNNYFTSVPKNFMELLTNQEAQQWVSGWRLNADSVLWGGHKVFMVKPEEPFQPVKEATQL [M83C] | 0.0525 | 0.0581 | 0.0552 |  | 0.0654 |  |  | 0.0647 |  |  | 0.0686 |  | 0.0608 | 0.0919 | 0.0585 | 0.0672 |  | 
MGESLFKGPRDYNPISSSICHLTNESDGHTTSLYGIGFGPFIITNKHLFRRNNGTLVVQSLHGVFKVKDTTTLQQHLVDGRDKIIIRMPKDFPPFPQKLKFREPQREERICLVTTNFQTKSMSSMVSDTSCTFPSGDGIFWKHWIQTKDGQCGSPLVSTRDGFIVGIHSASNFTNTNNYFTSVPKNFMELLTNQEAQQWVSGWRLNADSVLWGGHKVFMVKPEEPFQPVKEATQL [M83K] | 0.0493 | 0.0454 |  |  |  |  | 0.0704 |  | 0.0646 | 0.0475 |  | 0.0516 | 0.0271 |  | 0.0356 | 0.056 | 0.0629 | 0.0651
MGESLFKGPRDYNPISSSICHLTNESDGHTTSLYGIGFGPFIITNKHLFRRNNGTLVVQSLHGVFKVKDTTTLQQHLVDGRGMIIIRMPKDFPPFPQKLKFREPQREERICLVTTNFQTKSMSSMVSDTSCTFPSGDGIFWKHWIQTKDGQCGSPLVSTRDGFIVGIHSASNFTNTNNYFTSVPKNFMELLTNQEAQQWVSGWRLNADSVLWGGHKVFMVKPEEPFQPVKEATQL [D82G] | 0.0269 | 0.0623 |  |  |  |  | 0.0473 |  |  |  |  |  | 0.0604 |  |  |  |  | 
MGESLFKGPRDYNPISSSICHLTNESDGHTTSLYGIGFGPFIITNKHLFRRNNGTLVVQSLHGVFKVKDTTTLQQHLVDGRRMIIIRMPKDFPPFPQKLKFREPQREERICLVTTNFQTKSMSSMVSDTSCTFPSGDGIFWKHWIQTKDGQCGSPLVSTRDGFIVGIHSASNFTNTNNYFTSVPKNFMELLTNQEAQQWVSGWRLNADSVLWGGHKVFMVKPEEPFQPVKEATQL [D82R] | 0.052 | 0.0542 |  |  |  | 0.0376 |  |  | 0.0781 |  |  | 0.0506 | 0.0494 |  | 0.0617 |  |  | 
